Assay results as given in the supplement of paper PMC10126150.
Values marked as one replicate rest on one cluster of the flow cell; about a third of the high ones do not repeat.
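Further: ATP exposure 15 min at 22 °C before imaging.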

The sequences below were run on ATP (assay: switch fluorescence ratio, 500 uM ATP over buffer (Cy3 cluster intensity, sum of 5 cycles each) (fold (ratio)); higher = stronger signal-on switching upon ATP binding; sequences stand for … in TCGTCGGCAGCGTCAGATGTGTATAAGAGACAGTTTTTTTTTTTTTTTTTTTTTTTTT…TC). Settings: aptamer strand: ATP DNA aptamer (quencher-CACCTGGGGGAGTATTGCGGAGGAAGG + anchor), 100 nM annealed; ATP concentration: 500 uM; one replicate.
Procedure, shortened: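 The fluorescence ratio divides summed target-cycle Cy3 intensity by summed buffer-cycle Cy3 intensity for each cluster and is averaged per switch-domain sequence. Cy3-labelled switching-strand clusters on a modified Illumina MiSeq flow-cell were annealed to 100 nM quencher-labelled ATP aptamer, then imaged in selection buffer and again after 15 min with 500 uM ATP at 22 °C. Five such cycles were run, with NaOH stripping and re-annealing between them, and clusters outside 100-1000 RFU were excluded.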
For ATTATGGGTG, the switch fluorescence ratio was 1.07.
Work on CCGAGTACCT yielded a switch fluorescence ratio of 1.23.
In the case of AATGAGCTAC, the switch fluorescence ratio is reported as 1.22.
With CTCTTGCAGG the switch fluorescence ratio was 1.17.
Sequence ACCTAAGATT has a switch fluorescence ratio of 1.03.
Sequence TAGAAGCAG has a switch fluorescence ratio of 0.981.
Work on GGTGAAGTGG yielded a switch fluorescence ratio of 0.953.
TCGCAAAAGG showed a switch fluorescence ratio of 1.24.
CGAGGACGAT showed a switch fluorescence ratio of 1.01.
In the case of TACCTGTACG, the switch fluorescence ratio is reported as 1.18.
For GCCATAAGCG, the switch fluorescence ratio was 1.
TAAGCATGAT showed a switch fluorescence ratio of 1.01.
Sequence GGTTACGTTG has a switch fluorescence ratio of 0.988.
ATTTACTGTG showed a switch fluorescence ratio of 1.02.
TTCTAGGTAC was tested, and the switch fluorescence ratio was 4.33.
GGAGGAAAGA gave a switch fluorescence ratio of 1.
ACTGATGCAT was tested, and the switch fluorescence ratio was 1.06.
ATAAGAGGC was tested, and the switch fluorescence ratio was 1.
With GTTAACCGCT the switch fluorescence ratio was 1.08.
Sequence ATTATTTGGA has a switch fluorescence ratio of 1.03.
With CAATCCGATA the switch fluorescence ratio was 1.05.
TTCAAGATGA gave a switch fluorescence ratio of 0.978.
Sequence AATCACGTTC has a switch fluorescence ratio of 0.999.
CTGGGAGTGC was tested, and the switch fluorescence ratio was 0.964.
With CGACGTGGGG the switch fluorescence ratio was 1.07.
Work on TTTCGTTAGA yielded a switch fluorescence ratio of 1.02.
In the case of GCCGGGATAC, the switch fluorescence ratio is reported as 4.08.
CGCTTACATG was tested, and the switch fluorescence ratio was 1.07.
Sequence TACGTTATGA has a switch fluorescence ratio of 1.16.
For GCGGAAACAG, the switch fluorescence ratio was 1.
CGCCTGAATG was tested, and the switch fluorescence ratio was 0.991.
In the case of AACGGGAGCT, the switch fluorescence ratio is reported as 0.984.
In the case of TATGCTTGTC, the switch fluorescence ratio is reported as 1.01.
Work on AACGCTACTG yielded a switch fluorescence ratio of 1.69.
Work on AAAAGTGGTC yielded a switch fluorescence ratio of 1.05.
With CCAGGGCTTG the switch fluorescence ratio was 1.01.
Sequence GGTATAGTGA has a switch fluorescence ratio of 0.99.
Sequence TATGTCCGCG has a switch fluorescence ratio of 1.1.
Sequence GTTTGGTAAG has a switch fluorescence ratio of 0.962.
Sequence TGGCCCCCAC has a switch fluorescence ratio of 1.06.
AAACTGGGTG was tested, and the switch fluorescence ratio was 1.21.
Sequence AAATATTTTT has a switch fluorescence ratio of 1.
Work on GGGTAGTGCT yielded a switch fluorescence ratio of 1.
In the case of CAGATAGCTG, the switch fluorescence ratio is reported as 1.12.
For CTTTGATCAT, the switch fluorescence ratio was 1.01.
Sequence GACCAATTGC has a switch fluorescence ratio of 1.24.
With GGGGCCTTGT the switch fluorescence ratio was 0.993.
With ATTTGGACAA the switch fluorescence ratio was 1.02.
Sequence ATAATAAGTC has a switch fluorescence ratio of 1.07.
For AGTATGCTTC, the switch fluorescence ratio was 0.975.
Work on ATAACGGGT yielded a switch fluorescence ratio of 0.957.
Sequence ATCGCCAAGT has a switch fluorescence ratio of 0.974.
CCATCTTAC was tested, and the switch fluorescence ratio was 1.27.
For CGCCCCTAGT, the switch fluorescence ratio was 1.08.
TGCCGGGCGT gave a switch fluorescence ratio of 0.999.
TGAACCGGTA gave a switch fluorescence ratio of 1.01.
TGACTGCGTC was tested, and the switch fluorescence ratio was 0.959.
Sequence CACTTGACGC has a switch fluorescence ratio of 1.15.
TTCCTTAATA gave a switch fluorescence ratio of 0.993.
For CACCGTC, the switch fluorescence ratio was 1.14.
Sequence GTTGGCCGAA has a switch fluorescence ratio of 1.
For GGGAGTTGTG, the switch fluorescence ratio was 0.93.
GGTAGGCG was tested, and the switch fluorescence ratio was 1.03.
GCACGTAATA showed a switch fluorescence ratio of 1.61.
Sequence GTAATGGAAA has a switch fluorescence ratio of 1.02.
In the case of GAGGTAACAT, the switch fluorescence ratio is reported as 1.02.
Work on CTATTATTGG yielded a switch fluorescence ratio of 1.01.
In the case of GCCCGCATTT, the switch fluorescence ratio is reported as 1.9.
AAGAATTTAT gave a switch fluorescence ratio of 1.
With AGGGGCACCA the switch fluorescence ratio was 1.03.
Sequence CGTCTCATTA has a switch fluorescence ratio of 0.978.
In the case of TGTCCGTTTA, the switch fluorescence ratio is reported as 1.07.
Sequence CAGCGCACCA has a switch fluorescence ratio of 1.02.
Work on GGGTCTTAGG yielded a switch fluorescence ratio of 0.926.
In the case of GACAGCCTTG, the switch fluorescence ratio is reported as 1.
Work on ATGAATGGC yielded a switch fluorescence ratio of 1.1.
Sequence GGCTCTCTGT has a switch fluorescence ratio of 0.988.
Sequence GAGCAGTCCT has a switch fluorescence ratio of 1.18.
TTTCGATTGG gave a switch fluorescence ratio of 0.989.
With CCGGATTTAT the switch fluorescence ratio was 1.03.
CATGAAACTG was tested, and the switch fluorescence ratio was 0.932.
AGAAGGGTTT showed a switch fluorescence ratio of 0.959.
CCTTTGTCTT gave a switch fluorescence ratio of 1.04.
Sequence CAGCTGAACG has a switch fluorescence ratio of 1.03.
In the case of AACGTGGGCG, the switch fluorescence ratio is reported as 0.959.
With CGGCTCTCTG the switch fluorescence ratio was 0.988.
Sequence TTAGTAAGGG has a switch fluorescence ratio of 1.
Sequence TTCCCTGGAG has a switch fluorescence ratio of 1.06.
Work on GTTACTGTTT yielded a switch fluorescence ratio of 0.988.
In the case of TTCGTGTCTA, the switch fluorescence ratio is reported as 1.01.
TGACTTAAAG showed a switch fluorescence ratio of 1.
With TACTAGGGGC the switch fluorescence ratio was 1.08.
For AGCCTTGCAA, the switch fluorescence ratio was 1.65.
For CTTAGGTGTG, the switch fluorescence ratio was 1.05.
ATCCTTGGCG was tested, and the switch fluorescence ratio was 1.
CTTAACCTTG gave a switch fluorescence ratio of 1.01.
CTCGGATGC gave a switch fluorescence ratio of 1.
For GGACGCGAAG, the switch fluorescence ratio was 1.02.
Work on TCTTTCGGCT yielded a switch fluorescence ratio of 1.19.
CATCTGGCGT was tested, and the switch fluorescence ratio was 1.02.
With TCTTCCGCCT the switch fluorescence ratio was 3.92.
For CGTAGCACGG, the switch fluorescence ratio was 1.29.
TTCATGAAGT showed a switch fluorescence ratio of 0.987.
For TTCTATAGGC, the switch fluorescence ratio was 1.
With CGGATATAGC the switch fluorescence ratio was 0.989.
Work on CTATAGTGAC yielded a switch fluorescence ratio of 1.11.
Sequence TGCGAGCTGG has a switch fluorescence ratio of 0.958.
TCTGCTAGGT gave a switch fluorescence ratio of 1.02.
Work on ATGCAGCTGC yielded a switch fluorescence ratio of 0.977.
For TCGTGGACA, the switch fluorescence ratio was 1.02.
Work on ATGGAACTGT yielded a switch fluorescence ratio of 0.994.
In the case of CCTTTCTTCG, the switch fluorescence ratio is reported as 3.03.
CATCAAGTGC was tested, and the switch fluorescence ratio was 1.19.
TACAGATATC was tested, and the switch fluorescence ratio was 0.972.
GCCGTCATGG gave a switch fluorescence ratio of 1.01.
TATCTTACTA showed a switch fluorescence ratio of 0.999.
ACTTAAGCCG showed a switch fluorescence ratio of 1.08.
GCGCACAAGG was tested, and the switch fluorescence ratio was 1.02.
With AGGAGCAGGC the switch fluorescence ratio was 1.04.
Sequence CGTTGATAAT has a switch fluorescence ratio of 0.99.
AGTCAATGTC showed a switch fluorescence ratio of 1.1.
TCTAGGGCG showed a switch fluorescence ratio of 1.02.
ATATAGTGGT was tested, and the switch fluorescence ratio was 1.01.
Sequence TTTGCTCACT has a switch fluorescence ratio of 1.03.
Work on TTCTCTGTGT yielded a switch fluorescence ratio of 1.04.
In the case of ACATTCGTAA, the switch fluorescence ratio is reported as 1.
AAAGCGTCCA was tested, and the switch fluorescence ratio was 0.975.
GTGCGTAGAA showed a switch fluorescence ratio of 0.972.
Sequence ATAAAAAAAC has a switch fluorescence ratio of 1.02.
TAAGTATG showed a switch fluorescence ratio of 0.984.
For GGGGTGACT, the switch fluorescence ratio was 1.04.
Work on GCCTTAAGTA yielded a switch fluorescence ratio of 1.01.
GAAATGAATT gave a switch fluorescence ratio of 0.969.
TCCGCTGTGG was tested, and the switch fluorescence ratio was 1.75.
TACGGTTCAT gave a switch fluorescence ratio of 1.06.
Sequence AATATACTAA has a switch fluorescence ratio of 1.03.
In the case of TATCTGGACC, the switch fluorescence ratio is reported as 1.
Work on AGGTGAGGTT yielded a switch fluorescence ratio of 1.03.
For GCTTCTCAAA, the switch fluorescence ratio was 0.989.
With CGATATAGGG the switch fluorescence ratio was 0.978.
GCAGGTTTAA gave a switch fluorescence ratio of 1.01.
TCTAGGCGCC was tested, and the switch fluorescence ratio was 1.01.
GATGTCCGTG gave a switch fluorescence ratio of 0.989.
Sequence GCAGCTTGAG has a switch fluorescence ratio of 1.08.
In the case of AGCGAAAGAT, the switch fluorescence ratio is reported as 1.03.
With CACCGGTCGT the switch fluorescence ratio was 0.962.
For TGCAGCCATT, the switch fluorescence ratio was 1.01.
With TCGGGTACGG the switch fluorescence ratio was 1.01.
CAATCGGGGG gave a switch fluorescence ratio of 1.03.
For TTAGCTAAGT, the switch fluorescence ratio was 0.987.
GCTGCATA was tested, and the switch fluorescence ratio was 1.71.
AGTACGATTT was tested, and the switch fluorescence ratio was 0.991.
With TGGCTTGGCT the switch fluorescence ratio was 0.977.
Work on ACGTGTGCT yielded a switch fluorescence ratio of 0.935.
CTTGACTCAC was tested, and the switch fluorescence ratio was 1.19.
In the case of CAATTCGGTG, the switch fluorescence ratio is reported as 1.
In the case of CAAGTTAGAC, the switch fluorescence ratio is reported as 1.06.
